The whole screen tested about 410,000 compounds, of which about 6,400 (1.6%) were called active. Inconclusive results, whose numbers are uncertain, are shown with a selection of clear calls. The call rests on the fitted dose curve; in most records, active means well fitted inhibition curve with a large enough effect; inconclusive means small, poorly fitted or top-dose-only effect; inactive means no such curve, though single readings can be large or run the other way. No potency is given beside an inconclusive call; the fits are too rough.
Each molecule was assayed against Glucagon-like peptide 1 receptor (Homo sapiens) (UniProt P43220) (assay: qHTS of GLP-1 Receptor Inverse Agonists (Inhibition Mode)). Conditions: HEK293 GLP-1R CRE-luciferase, luminescence, 24 h, GLP-1R form is constitutively active; activity change, negative = inhibition: at 38.3 µM (top of the series) unless noted.
Sequence of UniProt P43220 (P43220 whole entry, looked up): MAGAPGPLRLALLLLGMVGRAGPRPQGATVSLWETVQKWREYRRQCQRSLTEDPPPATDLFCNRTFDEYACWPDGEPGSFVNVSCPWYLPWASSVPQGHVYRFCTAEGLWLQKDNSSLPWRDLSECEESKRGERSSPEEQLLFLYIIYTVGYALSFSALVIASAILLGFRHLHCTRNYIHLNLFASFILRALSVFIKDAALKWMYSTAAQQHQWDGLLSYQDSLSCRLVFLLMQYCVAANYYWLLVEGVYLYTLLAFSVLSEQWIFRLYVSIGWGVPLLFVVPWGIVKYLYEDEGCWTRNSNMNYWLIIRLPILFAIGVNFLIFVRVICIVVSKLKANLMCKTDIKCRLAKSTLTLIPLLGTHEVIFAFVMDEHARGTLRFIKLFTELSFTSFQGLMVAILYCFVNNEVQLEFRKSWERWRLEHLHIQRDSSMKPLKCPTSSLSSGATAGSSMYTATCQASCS
Method in brief: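 HEK293 cells stably co-expressing constitutively active GLP-1R and a cAMP-responsive luciferase reporter were seeded in DMEM with 10% Nu serum, given compounds after 12 h, and incubated 24 h at 37 deg C. Luminescence was then read.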
Further: nearly all actives have a fitted effect of over 55% in size.
On the % scale 0 is the no-effect control and ±100 the full control effect; potency means the concentration at half of the fitted maximal effect; tags describe the fitted curve by direction and shape.

SMILES	Potency	activity change, negative = inhibition
CCCC(C)c1nnc(NC(=O)C2CC(=O)N(CCc3ccc(F)cc3)C2)s1 (stereo not drawn)	inconclusive [inhibitor, single point]	–
COc1cccc(OCc2cc(C(=O)N3CCN(C4CCCC4)CC3)no2)c1	inconclusive [inhibitor, partial curve, poor fit]	–
CC(=O)c1sc(Nc2cccc(C)c2)nc1C	–	inactive: 13.9%
O=C(CNC(=O)c1ccccc1Br)N/N=C/c1cc(Br)ccc1O	inconclusive [inhibitor, partial curve, poor fit]	–
CCOc1ccc(NC(=S)NC(=O)Cc2ccccc2)cc1	inconclusive [inhibitor, partial curve]	–
COc1ccc(-c2nc(C)c(C(C)=O)n2O)cc1	–	inactive: 10.7%
COc1ccccc1NS(=O)(=O)c1cccc(C(=O)NCC2(N3CCCCC3)CCCCC2)c1	inconclusive [inhibitor, single point]	–
O=C(NCCOc1ccc2ccccc2c1)c1cncc(Br)c1	inconclusive [inhibitor, full curve, poor fit]	–
CCN(C(=O)COc1ccc(N(C)S(=O)(=O)c2ccc(NC(C)=O)cc2)cc1)C1CCCCC1	inconclusive [inhibitor, partial curve]	–
Cc1ccc(S(=O)(=O)N2[C@@H](c3ccc(Cl)cc3)C(C(=O)O)=C[C@H]2CC2CCCC2)cc1	inconclusive [inhibitor, single point]	–
O=C1CN(C(=O)c2cc(F)cc(F)c2)c2ccccc2N1	inconclusive [inhibitor, single point]	–
O=C(NCCC1=CCCCC1)c1ccc(Cl)c(S(=O)(=O)N2CCOCC2)c1	–	inactive: -1.24%
O=[N+]([O-])c1ccccc1OC/C(=N\O)c1ccccc1	inconclusive [inhibitor, single point]	–
FC(F)(F)COc1nc(N2CCOCC2)nc(N(c2ccccc2)c2ccccc2)n1	inconclusive [inhibitor, single point]	–
O=C(NCc1ccc(Cl)cc1)C1=Cc2cc(Br)ccc2OC1	inconclusive [inhibitor, single point]	–
O=C(NCCCN1CCc2ccccc2C1)Nc1ccc(Br)cc1	inconclusive [inhibitor, partial curve, poor fit]	–
COC(=O)C(NC(=O)c1ccc(F)cc1)(Nc1nc(C)cs1)C(F)(F)F (stereo not drawn)	inconclusive [inhibitor, single point]	–
COc1ccc([N+](=O)[O-])cc1NC(=O)C(C)N(C)Cc1ccc(Br)cc1 (stereo not drawn)	–	inactive: 20.3%
